From the supplement of paper PMC3334620
Over roughly 33,000 sequences, “E-score (-0.5 to 0.5)” has its median near -0.012; the highest 2% begin near 0.29. Some of the results follow.

molecular target: T1, Ybr033w (UniProt P38073); assay: PBM E-score (8-mer binding enrichment) (E-score (-0.5 to 0.5)); higher = stronger / more preferred TF binding; most listed sequences are background and not binding sites; details: protein concentration: 200 nM; construct: GST-full length
T1 sequence: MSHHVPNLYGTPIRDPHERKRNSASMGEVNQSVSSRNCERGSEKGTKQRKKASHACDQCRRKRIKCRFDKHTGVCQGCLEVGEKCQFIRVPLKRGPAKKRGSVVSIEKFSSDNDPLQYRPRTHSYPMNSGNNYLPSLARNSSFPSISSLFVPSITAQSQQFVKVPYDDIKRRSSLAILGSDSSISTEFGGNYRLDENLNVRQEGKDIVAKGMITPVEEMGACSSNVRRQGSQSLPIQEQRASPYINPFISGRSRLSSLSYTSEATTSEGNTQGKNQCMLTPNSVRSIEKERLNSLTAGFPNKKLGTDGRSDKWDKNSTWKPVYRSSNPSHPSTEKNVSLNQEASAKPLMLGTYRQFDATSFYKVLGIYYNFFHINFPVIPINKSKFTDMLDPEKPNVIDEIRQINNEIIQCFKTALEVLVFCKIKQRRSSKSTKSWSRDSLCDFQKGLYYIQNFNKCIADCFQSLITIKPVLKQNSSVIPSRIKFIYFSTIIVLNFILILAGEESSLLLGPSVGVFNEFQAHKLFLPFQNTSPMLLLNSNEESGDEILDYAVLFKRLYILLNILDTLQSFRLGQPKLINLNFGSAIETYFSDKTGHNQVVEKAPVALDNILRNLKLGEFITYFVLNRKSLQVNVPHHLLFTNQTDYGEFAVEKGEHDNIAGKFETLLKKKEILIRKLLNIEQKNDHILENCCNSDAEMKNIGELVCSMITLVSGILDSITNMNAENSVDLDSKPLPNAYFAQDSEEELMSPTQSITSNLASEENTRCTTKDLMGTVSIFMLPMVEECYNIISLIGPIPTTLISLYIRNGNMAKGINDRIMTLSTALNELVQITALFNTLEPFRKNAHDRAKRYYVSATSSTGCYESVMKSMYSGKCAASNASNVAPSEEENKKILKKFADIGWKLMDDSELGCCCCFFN
Method in brief: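 For each ungapped eight-base word taken together with its reverse complement, the Universal PBM Analysis Suite assigned an E-score. Binding data came from GST-tagged yeast transcription factors, applied at about 100-200 nM, on universal all-10-mer Agilent arrays made double-stranded by primer extension. Fluorescent anti-GST marked bound protein, and scans were normalised with masliner.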

Sequence | PBM E-score
ATAGGGAC | -0.0682
ACTCTGGA | 0.145
CTGAATTC | -0.0454
CCTAGAAG | -0.16
ATGTTCCA | 0.332
AGGCTTCA | -0.0768
ACTGGAGG | 0.0259
AGATAGTG | 0.154
GCCGCGCC | -0.232
GCTACCAA | -0.121
CCAGTCTC | -0.222
GCCAAGCC | -0.173
CCACCACG | -0.0966
AACCTCAC | -0.05
ATATCATC | 0.0901
CTAAACCA | 0.0356
AATGTGAA | 0.313
ACGGATTA | 0.233
TCGTACCA | 0.159
ACTGCGCT | 0.0162
CATGTCTC | 0.00262
CAAGGTAC | 0.022
CGTCTGAG | -0.0855
CGATAAGA | 0.0559
ATAATTGC | 0.255

Sequence | PBM E-score
CAACGTAA | 0.0512
AGAGTTGG | 0.0237
GGTGGCAA | -0.0214
ATACGTAC | -0.0727
AAGAAGTG | 0.145
ATTACAGA | 0.141
CGTTCATC | -0.00051
CCCATAGC | -0.127
ATGACCCA | 0.0427
CTATATTA | 0.284
AGGGGACA | -0.208
ATTGTAGG | 0.189
CCCTGGAG | -0.239
CCAAATTC | 0.111
CCCCCGTA | -0.405
GTCGGGAA | -0.0544
CGGGCAAG | -0.145
TACTTCAA | 0.219
CTACTGAA | 0.0539
CCTACCTC | -0.26
GGCCTCTA | -0.251
TCCATGGA | 0.181
GAGATAGA | 0.0389
ATCAAGTG | -0.142
AAATGCAC | -0.0186

Sequence | PBM E-score
TATGCCCA | -0.0335
TAGTGTAA | 0.184
CCATATTA | 0.146
AACTTCAG | 0.102
AGGAGTTC | -0.145
CGCAAACC | -0.068
GTGATTGA | 0.16
AAGTGTAC | -0.0324
GGTTGAAA | 0.13
CGCGAGAC | -0.082
CCCATGTA | -0.0248
AGGCATGC | -0.0978
AAACCCGA | 0.134
AAGGAAGA | 0.129
ACCTGCTG | 0.135
ACTCGACT | -0.0394
GACTTCTA | -0.0575
AGGCAGAC | -0.106
AGTGAAAT | 0.165
CCTAAGTC | -0.206
CCTGAACA | -0.0549
GAGCCCAC | -0.27
ACGGTGGA | -0.0951
CCTCTAAG | -0.132
CTGGCCTC | -0.228

Sequence | PBM E-score
GGGCGTAA | -0.294
CCCTGAGC | -0.0655
AGCTTATA | -0.00365
ACTTCACC | 0.0864
ACCATCAG | -0.0983
CATTGGAA | 0.192
AATCTCCA | 0.0207
CAAAGTAG | 0.12
CGGGGGAC | -0.322
ACTATAGG | 0.0138
ATACACGC | 0.0245
ATCGGGTG | -0.0659
CTGCCCCA | -0.248
GAAACTAA | 0.135
GCTATGAA | 0.117
GTCCAGTA | 0.0171
ATTGTACG | 0.201
AACACAAT | 0.21
TCCGGTCA | -0.066
AATGTGCT | 0.0632
AGGGCCTA | -0.218
CTGGCATC | -0.206
ACGCTTTC | -0.155
AAGGTATC | -0.125
CTGGCGTA | -0.0739

Sequence | PBM E-score
CTATGGTC | -0.0605
AATCCGCA | 0.119
AATGGCCA | -0.0335
ACCCCGAT | -0.036
AGCTTTCA | 0.0958
AAGTGCTA | 0.0657
GGTTGGAC | -0.056
CGACGGTC | -0.287
CAAACAGC | -0.0984
AGCGTCGA | -0.0109
CACCTTGC | -0.18
AAGGGAGA | -0.166
CAAACAAA | 0.224
TGGCTACA | -0.111
CTCATCAC | -0.088
GATCATGA | 0.178
GCTGCATA | 0.0679
CGCGCAAA | 0.204
AAGGGCCA | -0.246
TCCACTAA | 0.0485
CTGGGTAA | 0.00696
CGCCCGAG | -0.195
ACTGCGTA | -0.0835
ATAACATA | 0.214
ACTCCTAA | 0.0868

Sequence | PBM E-score
ATCTTATA | 0.224
CCCAGATA | -0.166
ATTGACCG | -0.00177
CAACGCGG | -0.235
ACAGCCGC | -0.0825
ACCATTCA | 0.0831
GGTGCGAA | -0.101
TCGACACA | -0.028
ATAGAGTA | 0.108
AAGATAGT | 0.0427
GGTTCAAC | 0.0566
GAACACGA | -0.0138
ACAAGCCG | -0.0137
GGGGCGTA | -0.307
CACTACCG | -0.123
CCGGCTGA | -0.078
ACTTTGTC | 0.167
CCAGCTCA | -0.0739
CCAAGCCA | -0.0691
TCGTACAA | 0.25
AAGAAAAG | 0.149
CACTACTG | 0.013
GAAGGCCA | -0.239
AATAACAA | 0.234
ACCTGTAG | -0.105

Sequence | PBM E-score
CATCCCGG | -0.0873
ATAAGAGG | -0.0593
ACAAGAAG | 0.146
ATGTGCCG | -0.223
GTGGCAGA | -0.252
CGAAATTA | 0.151
CCGCTTAC | -0.0878
GAACATGA | -0.0393
CCCTCGCC | -0.198
CATGCCTA | -0.133
TACAAACA | 0.29
AACCCTGA | -0.00342
TTGCCAAA | 0.0637
CACGCGCG | -0.0876
CTTATGCC | -0.0223
CCGGCACC | -0.177
GCAAGGGC | -0.285
ATCGATTG | 0.199
AACGCCAG | 0.105
GCCTTGTA | -0.0689
CTATCGCA | 0.0795
CGTAGGTA | -0.0615
